Experimental data: PMC4336329 (PLoS ONE, 2015)
About 2,200 (0.71%) of roughly 310,000 compounds showed an effect of 50% or more. Effects have a minus sign here. This is one part of the list.

What follows are molecules tested against human ether-à-go-go-related gene (hERG) potassium channel (human, UniProt Q12809) (assay: primary screen, population patch clamp on CHO cells stably expressing hERG).
Chain of human ether-à-go-go-related gene (hERG) potassium channel (Q12809 whole entry, looked up): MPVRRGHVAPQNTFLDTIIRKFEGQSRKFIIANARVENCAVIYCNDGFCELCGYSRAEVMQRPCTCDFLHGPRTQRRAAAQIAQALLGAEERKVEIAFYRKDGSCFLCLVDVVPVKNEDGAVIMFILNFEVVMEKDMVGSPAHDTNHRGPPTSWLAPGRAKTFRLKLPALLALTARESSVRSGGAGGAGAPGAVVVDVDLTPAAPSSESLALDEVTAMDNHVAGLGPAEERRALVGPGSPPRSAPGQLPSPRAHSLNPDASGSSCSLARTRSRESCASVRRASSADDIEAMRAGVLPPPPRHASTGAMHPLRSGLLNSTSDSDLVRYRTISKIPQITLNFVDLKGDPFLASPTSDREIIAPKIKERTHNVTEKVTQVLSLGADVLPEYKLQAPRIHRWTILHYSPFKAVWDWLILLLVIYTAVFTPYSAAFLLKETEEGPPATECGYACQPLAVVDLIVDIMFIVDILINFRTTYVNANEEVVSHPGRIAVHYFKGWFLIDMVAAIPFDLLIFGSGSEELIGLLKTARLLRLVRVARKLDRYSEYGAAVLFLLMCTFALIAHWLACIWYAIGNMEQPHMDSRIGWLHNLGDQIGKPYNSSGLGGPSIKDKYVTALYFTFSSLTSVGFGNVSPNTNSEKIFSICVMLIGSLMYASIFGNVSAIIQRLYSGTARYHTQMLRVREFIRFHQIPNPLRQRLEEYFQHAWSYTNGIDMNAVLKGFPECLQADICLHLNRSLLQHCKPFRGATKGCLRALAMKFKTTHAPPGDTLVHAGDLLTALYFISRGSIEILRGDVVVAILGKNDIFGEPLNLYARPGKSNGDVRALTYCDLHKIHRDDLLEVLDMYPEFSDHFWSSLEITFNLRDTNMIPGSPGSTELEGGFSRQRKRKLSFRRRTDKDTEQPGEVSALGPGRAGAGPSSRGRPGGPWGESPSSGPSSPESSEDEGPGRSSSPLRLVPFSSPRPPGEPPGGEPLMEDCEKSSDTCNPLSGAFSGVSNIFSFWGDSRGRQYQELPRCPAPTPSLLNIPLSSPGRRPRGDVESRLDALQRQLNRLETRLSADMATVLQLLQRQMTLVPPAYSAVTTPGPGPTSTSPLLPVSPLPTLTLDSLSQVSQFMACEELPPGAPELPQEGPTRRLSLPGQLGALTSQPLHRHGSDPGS
For `O=C(NCCc1ccccc1)C1COc2ccccc2O1` (stereo not shown), the “hERG current change (%, negative = inhibition) at 1uM” value was 15.2%.
`Cc1ccc(NS(=O)(=O)c2ccc(C(=O)NCc3ccccn3)cc2)cc1` was tested, and the “hERG current change (%, negative = inhibition) at 1uM” value was 16.4%.
`COc1ccc(Cl)cc1NC(=O)NC1CCCCC1` was tested, and the “hERG current change (%, negative = inhibition) at 1uM” value was 9.6%.
For `CCOC(=O)C1=C(c2ccccc2)NC(=O)NC1c1cccc(OC)c1OC` (stereo not shown), the “hERG current change (%, negative = inhibition) at 1uM” value was 11.1%.
For `CC(=O)c1cc(-c2ccccc2)n(CCC(=O)NC2CCCCCC2)c1C`, the “hERG current change (%, negative = inhibition) at 1uM” value was -1.38%.
With `C=CCOC(=O)C1=C(C)OC(N)=C(C#N)C1c1ccc(F)cc1` (stereo not shown) the “hERG current change (%, negative = inhibition) at 1uM” value was 5.22%.
`CCC(=O)NC(=S)Nc1ccc(NC(=O)c2ccc([N+](=O)[O-])cc2Cl)cc1` was tested, and the “hERG current change (%, negative = inhibition) at 1uM” value was 4.72%.
`COc1ccc(N(C)S(=O)(=O)c2cccc(C(=O)Nc3nc4ccccc4[nH]3)c2)cc1` was tested, and the “hERG current change (%, negative = inhibition) at 1uM” value was 12.9%.
For `COc1ccc(OC)c(S(=O)(=O)N2CCC(C(=O)NC3CCCCC3)CC2)c1`, the “hERG current change (%, negative = inhibition) at 1uM” value was 7.94%.
In the case of `COc1ccc(-c2noc(CCC(=O)NCCCN3CCC(Cc4ccccc4)CC3)n2)cc1`, the “hERG current change (%, negative = inhibition) at 1uM” value is reported as -84.9%.
With `Cc1cccc(NC(=O)c2cc(NC(=O)C3CC=CCC3C(=O)O)ccc2N2CCOCC2)c1` (stereo not shown) the “hERG current change (%, negative = inhibition) at 1uM” value was 6.86%.
For `CC(=O)N/C(=N/c1nc(C)cc(C)n1)Nc1ccc(NC(C)=O)cc1`, the “hERG current change (%, negative = inhibition) at 1uM” value was 12.1%.
In the case of `CCCNC(=O)NC(=O)COC(=O)c1cccc(NS(=O)(=O)c2ccc(F)c(F)c2)c1`, the “hERG current change (%, negative = inhibition) at 1uM” value is reported as 6.01%.
With `O=C(c1cc(-c2ccc(Cl)cc2)n(-c2ccc(Cl)c(Cl)c2)n1)N1CCOCC1` the “hERG current change (%, negative = inhibition) at 1uM” value was 5.69%.
In the case of `Cc1cc(C(=O)N2CCC(C(N)=O)CC2)c(C)o1`, the “hERG current change (%, negative = inhibition) at 1uM” value is reported as 7.56%.
For `O=S(=O)(c1cnccc1N1CCN(/N=C/c2ccc(Cl)cc2)CC1)N1CCCCC1`, the “hERG current change (%, negative = inhibition) at 1uM” value was 7.98%.
With `Fc1ccc(/C=N\Nc2cccc(F)c2)cc1` the “hERG current change (%, negative = inhibition) at 1uM” value was 7.8%.
In the case of `O=C(CSc1ccc(F)cc1)Nc1ccc(N2CCOCC2)cc1`, the “hERG current change (%, negative = inhibition) at 1uM” value is reported as -5.65%.
For `O=C1CCCc2c1[nH]c1c(Br)cccc21`, the “hERG current change (%, negative = inhibition) at 1uM” value was -0.123%.
`CCC1(c2ccccc2)NC(=O)N(CC(=O)NNC(=O)COc2ccc(Cl)cc2C)C1=O` (stereo not shown) was tested, and the “hERG current change (%, negative = inhibition) at 1uM” value was 6.59%.
In the case of `O=C(COC(=O)C12CC3CC(CC(C3)C1)C2)Nc1nccs1`, the “hERG current change (%, negative = inhibition) at 1uM” value is reported as 20.8%.
In the case of `CCN(C(=S)Nc1ccc(OC(F)F)cc1)C1CCCCC1`, the “hERG current change (%, negative = inhibition) at 1uM” value is reported as -1.82%.
`Cc1cccc(NC(=O)N2CCN(Cc3ccccc3)CC2)c1` was tested, and the “hERG current change (%, negative = inhibition) at 1uM” value was 13.3%.
In the case of `O=C(c1ccc(NS(=O)(=O)c2cccc(F)c2)cc1)N1CCCC1`, the “hERG current change (%, negative = inhibition) at 1uM” value is reported as 3.36%.
With `Cc1cc([N+](=O)[O-])nn1CCCC(=O)Nc1cc(Cl)ccc1Cl` the “hERG current change (%, negative = inhibition) at 1uM” value was -3.37%.
With `COC(=O)NCC(C)OC(=O)Nc1cccc(Cl)c1` (stereo not shown) the “hERG current change (%, negative = inhibition) at 1uM” value was 4.62%.
In the case of `COC(=O)CSc1[nH]c2ccc(Br)cc2c1[N+](=O)[O-]`, the “hERG current change (%, negative = inhibition) at 1uM” value is reported as 16%.
With `CCOC(=O)CSc1cc(C)c(C#N)c2nc3ccccc3n12` the “hERG current change (%, negative = inhibition) at 1uM” value was 2.01%.
For `CCNS(=O)(=O)c1ccc(CCC(=O)Nc2ccccc2C(=O)OC)cc1`, the “hERG current change (%, negative = inhibition) at 1uM” value was 6.24%.
For `COc1ccc(OC)c(N(CC(=O)NCC2CCCO2)S(=O)(=O)c2ccccc2)c1` (stereo not shown), the “hERG current change (%, negative = inhibition) at 1uM” value was 8.63%.
With `O=C(COC(=O)c1cc(-c2ccncc2)nc2ccccc12)Nc1ccc2c(c1)OCO2` the “hERG current change (%, negative = inhibition) at 1uM” value was 9.37%.
In the case of `O=C(COC(=O)c1nc(Cl)ccc1Cl)NCc1ccc(Cl)cc1`, the “hERG current change (%, negative = inhibition) at 1uM” value is reported as 10.4%.
`COc1ccc(NC(=O)C2CCN(C(=O)c3ccccc3)CC2)c(OC)c1` was tested, and the “hERG current change (%, negative = inhibition) at 1uM” value was 6.42%.
`CCOC(=O)c1ccc(NC(=O)c2nc[nH]c2C(=O)N[C@H](C)c2ccccc2)cc1` was tested, and the “hERG current change (%, negative = inhibition) at 1uM” value was 14.7%.
For `COc1ccc(-n2c(CN3CCN(c4ccccn4)CC3)nc3ccc([N+](=O)[O-])cc3c2=O)c(OC)c1`, the “hERG current change (%, negative = inhibition) at 1uM” value was -6.09%.
In the case of `Cc1onc(-c2c(F)cccc2Cl)c1C(=O)Nc1cccc(S(=O)(=O)NCc2ccco2)c1`, the “hERG current change (%, negative = inhibition) at 1uM” value is reported as 8.33%.
For `Cc1cccc(NC(=O)c2cccc(NS(=O)(=O)c3ccc(Cl)cc3)c2)c1`, the “hERG current change (%, negative = inhibition) at 1uM” value was 11.8%.
`CCCCN(CCCC)CC(O)CN(c1cc([N+](=O)[O-])ccc1OC)S(=O)(=O)c1ccccc1` (stereo not shown) was tested, and the “hERG current change (%, negative = inhibition) at 1uM” value was -27.9%.
For `Cc1ccsc1/C=N/NC(=O)c1ccc2ccccc2c1`, the “hERG current change (%, negative = inhibition) at 1uM” value was 24.1%.
For `O=C1C2C3C=CC(C3)C2C(=O)N1c1cccc2cccnc12` (stereo not shown), the “hERG current change (%, negative = inhibition) at 1uM” value was 2.08%.
With `CC1=C(C(=O)OCC(Br)(Br)Br)C(c2cccc([N+](=O)[O-])c2)NC(=O)N1CCCC(=O)O` (stereo not shown) the “hERG current change (%, negative = inhibition) at 1uM” value was 7.23%.
`COc1cc2nc(CC(C)C)n(NC(=O)c3ccccc3Br)c(=O)c2cc1OC` was tested, and the “hERG current change (%, negative = inhibition) at 1uM” value was 13.7%.
With `CC(C)NC(=O)c1onc(CSc2nc3ccccc3[nH]2)c1C(=O)NC(C)C` the “hERG current change (%, negative = inhibition) at 1uM” value was 6%.
With `CCn1c(SCC(=O)N2CCCCC2C)nnc1-c1ccco1` (stereo not shown) the “hERG current change (%, negative = inhibition) at 1uM” value was 4.3%.
`COc1ccc(NC(=O)O/N=C/c2ccccc2)cc1` was tested, and the “hERG current change (%, negative = inhibition) at 1uM” value was 14.8%.
In the case of `CC(C)c1c(O)nc(SCC(=O)N2CCCCC2)[nH]c1=O`, the “hERG current change (%, negative = inhibition) at 1uM” value is reported as 4.87%.
`Cc1ccccc1S(=O)(=O)/N=C(/c1ccccc1)N(C)C` was tested, and the “hERG current change (%, negative = inhibition) at 1uM” value was 7.96%.
With `O=[N+]([O-])c1ccc2nc(-c3ccccc3)oc2c1` the “hERG current change (%, negative = inhibition) at 1uM” value was 4.95%.
In the case of `CC1CN(CCCSc2ccc(Cl)cc2)CC(C)O1.O=C(O)C(=O)O` (stereo not shown), the “hERG current change (%, negative = inhibition) at 1uM” value is reported as -5.42%.
For `CN1CCC(O)(c2ccccc2)C(C(=O)c2ccccc2)C1` (stereo not shown), the “hERG current change (%, negative = inhibition) at 1uM” value was 11.4%.
In the case of `COc1ccc(N2CCN(S(=O)(=O)c3c(C(=O)N4CCOCC4)c(C)n(C)c3C)CC2)cc1`, the “hERG current change (%, negative = inhibition) at 1uM” value is reported as 10.5%.
`CCOc1ccccc1NC(=O)COC(=O)c1ccc2ccccc2n1` was tested, and the “hERG current change (%, negative = inhibition) at 1uM” value was 18.6%.
For `CCOC(=O)N1CCN(C(=O)Cc2ccc(-n3c(=S)[nH]c4ccccc4c3=O)cc2)CC1`, the “hERG current change (%, negative = inhibition) at 1uM” value was 10.1%.
For `Cc1ccc(N2C(=O)CC(N3CCN/C3=C3\CC/C(=C\c4ccccc4)C3=O)C2=O)cc1` (stereo not shown), the “hERG current change (%, negative = inhibition) at 1uM” value was 6.97%.
In the case of `O=C(CCSCc1cccc(Cl)c1)NCCc1ccccc1`, the “hERG current change (%, negative = inhibition) at 1uM” value is reported as 4.92%.
